# Reference: the supplement of paper PMC9174493
# Some of the results follow. Single values of this set are uncertain. Values with irradiation are relative to irradiated vehicle.
# Experiments:
# A549-Dual [1] = assay: NF-kB reporter (SEAP) activity, viability-corrected, relative to vehicle (fold change vs vehicle); higher = more activation of STING-IRF / NF-kB immune response reporter; conditions: 10 µM
# A549-Dual [2] = assay: ISRE reporter (Lucia luciferase) activity, viability-corrected, relative to vehicle (fold change vs vehicle); higher = more activation of STING-IRF / NF-kB immune response reporter; conditions: 10 µM
# 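Throughout, for NF-kB reporter (SEAP) activity, viability-corrected, relative to vehicle: viability correction based on the alamar blue assay, with concentrations leaving 10% survival or less dropped.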
Compound,NF-kB reporter (A549-Dual [1]; irradiation: 8 Gy/4 fr),NF-kB reporter (A549-Dual [1]; irradiation: none),ISRE reporter (A549-Dual [2]; irradiation: 8 Gy/4 fr),ISRE reporter (A549-Dual [2]; irradiation: none)
Cc1cccc(C(C)c2cnc[nH]2)c1C.Cl (stereo unspecified) [Dexmedetomidine HCl],0.522,0.821,0.469,0.538
CN1C2CCC1CC(OC(=O)C1C=Nc3ccccc31)C2.Cl (stereo unspecified) [Tropisetron HCl],1.06,0.808,1.09,0.788
Cc1ccccc1-n1c(CF)nc2ccc(N)cc2c1=O [Afloqualone],0.593,0.673,0.287,0.229
CC(=O)OCC1=C(C(=O)O)N2C(=O)C(N)C2SC1 (stereo unspecified) [7-Aminocephalosporanic acid],1.03,1.12,0.762,0.94
CN1C2CCC1CC(OC(=O)C(CO)c1ccccc1)C2 (stereo unspecified) [Hyoscyamine],0.951,1.11,1.02,0.951
CCOC(=O)Nc1ccc(NCc2ccc(F)cc2)cc1N.Cl.Cl [Retigabine 2HCl],0.719,0.527,0.691,0.712
CC(C)N(CCC(C(N)=O)(c1ccccc1)c1ccccn1)C(C)C.O=P(O)(O)O (stereo unspecified) [Disopyramide Phosphate],1.3,0.722,1.31,0.653
CCC1C2CC3C4N(C)c5ccccc5C45CC(C2C5O)N3C1O (stereo unspecified) [Ajmaline],0.662,0.969,0.71,0.699
CNCC(O)c1ccc(O)cc1 (stereo unspecified) [Synephrine],0.922,0.796,1.05,0.928
CCN(CC)CCOC(=O)C(O)(c1ccccc1)c1ccccc1.Cl [Benactyzine hydrochloride],0.537,0.75,0.476,0.48
Br.CC(Cc1ccc(O)cc1)NCC(O)c1cc(O)cc(O)c1 (stereo unspecified) [Fenoterol hydrobromide],0.921,0.864,1.08,0.935
Cc1cc(C2=NOC(c3cc(Cl)cc(Cl)c3)(C(F)(F)F)C2)ccc1C(=O)NCC(=O)NCC(F)(F)F (stereo unspecified) [Fluralaner],0.639,0.751,0.754,0.929
CC12CCC3C(CCC4CC(=O)CCC43C)C1CCC2O (stereo unspecified) [Dihydrotestosterone(DHT)],0.654,0.506,0.814,0.593
CC1OC1P(=O)([O-])[O-].[Na+].[Na+] (stereo unspecified) [Fosfomycin Disodium],0.672,0.945,0.657,0.802
CC1OC(OC2CC(O)C3(CO)C4C(O)CC5(C)C(C6=CC(=O)OC6)CCC5(O)C4CCC3(O)C2)C(O)C(O)C1O.O.O.O.O.O.O.O.O (stereo unspecified) [Ouabain],1.79,1.81,0.0974,0.207
CC(C)OC(=O)C(C)NP(=O)(COC(C)Cn1cnc2c(N)ncnc21)Oc1ccccc1 (stereo unspecified) [Tenofovir Alafenamide (GS-7340)],0.707,0.86,0.669,1.1
CCC1CN2CCC3(C(=O)Nc4ccccc43)C2CC1/C(=C\OC)C(=O)OC (stereo unspecified) [Rhynchophylline],1.14,0.869,1.15,0.834
CNC(C)Cc1ccccc1OC.Cl (stereo unspecified) [Methoxyphenamine Hydrochloride],0.738,1.12,1.01,0.931
CC(=O)c1c([O-])cc(C)oc1=O.[Na+] [Sodium dehydroacetate],0.818,1.1,0.872,0.882
COP(=O)(OC)SCn1c(=O)oc2cc(Cl)cnc21 [Azamethiphos],0.963,1.03,0.699,0.749
CN(C)C(=O)C(CCN1CCC(O)(c2ccc(Cl)cc2)CC1)(c1ccccc1)c1ccccc1.Cl [Loperamide HCl],1.05,0.821,0.933,0.902
CC(=O)CC(C)C [4-Methyl-2-pentanone],1.05,0.595,1,0.457
COc1ccc2c(c1)[nH]c1c(C)nccc12.Cl [Harmine hydrochloride],2.03,4.23,0.468,2.3
COc1ccc(C(=O)O)cc1OC [Veratric acid],0.747,0.594,0.767,0.694
